{"source": "PubChem BioAssay AID1671188", "about": "(National Center for Advancing Translational Sciences (NCATS), 2021)", "note": "Screen size: about 100,000 compounds; about 250 (0.25%) were called active. Inconclusive results, whose numbers are uncertain, are shown with a selection of clear calls. The call rests on the fitted dose curve; in most records, active means well fitted inhibition curve with a large enough effect; inconclusive means small, poorly fitted or top-dose-only effect; inactive means flat fitted curve, though single readings scatter. No potency is given beside an inconclusive call; the fits are too rough. Potency means the concentration at half of the fitted maximal effect; tags describe the fitted curve by direction and shape.", "data": [{"target": "Alanine aminotransferase 2 (Homo sapiens) (UniProt Q8TD30)", "sequence (Q8TD30 whole entry, looked up)": "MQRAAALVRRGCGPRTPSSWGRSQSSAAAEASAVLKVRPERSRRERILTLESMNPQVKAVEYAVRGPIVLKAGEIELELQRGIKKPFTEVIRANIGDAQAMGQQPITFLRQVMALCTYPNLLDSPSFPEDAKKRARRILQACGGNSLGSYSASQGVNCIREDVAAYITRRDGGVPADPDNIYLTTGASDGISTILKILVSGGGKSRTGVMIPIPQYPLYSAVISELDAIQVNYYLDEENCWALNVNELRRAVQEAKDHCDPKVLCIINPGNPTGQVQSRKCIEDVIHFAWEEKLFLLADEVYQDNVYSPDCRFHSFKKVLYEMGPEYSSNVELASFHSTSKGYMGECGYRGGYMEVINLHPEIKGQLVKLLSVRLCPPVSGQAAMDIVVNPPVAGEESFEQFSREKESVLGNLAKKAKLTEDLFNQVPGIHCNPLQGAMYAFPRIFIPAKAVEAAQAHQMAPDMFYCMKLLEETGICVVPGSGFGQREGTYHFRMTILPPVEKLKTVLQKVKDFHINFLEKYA", "assay": "Primary qHTS assay for inhibitors of Glutamate pyruvate transaminase 2 (GPT2); further: nearly all actives have a fitted effect of over 60% in size", "details": "Recombinant GPT2, coupled pyruvate oxidase/HRP Amplex Red fluorescence; series mostly up to 57.7 µM", "procedure": "Assay Provider: Zhenghe John Wang Ph.D.\nCase Western Reserve University, Cleveland OH\nGlutamate pyruvate transaminase 2 (GPT2) catalyzes the reversible transamination of glutamate and pyruvate to provide a-ketoglutarate and alanine. We have optimized an assay for GPT2 enzymatic activity that couples pyruvate formation to detection of fluorescence using an established pyruvate oxidase/horseradish peroxidase / Amplex Red system.\nScreening conditions were 250uM a-KG, 2mM L-alanine, and 10ng/uL GPT2 in […] of solution; 10uL of Amplex reaction mix (outlined below) were added so that final concentrations of Amplex reagents in 50uL were 0.2mM ThPP, 0.2U/mL PO and HRP, and 50uM Amplex.\nNOTE: The volume of GPT2 in the system depends on the activity of it. The activity is different every batch. You need to test the activity before the assay. For full plate assay with automation, plate 20uL of GPT2 buffer to pin into, then add 10uL of GPT2 dilution followed immediately by 10uL of substrate dilution. 2 Columns of the plate were devoted to GPT2 buffer ([…] PH7.5, 0.0001% Tween) + 50uM AOA (known GPT2 inhibitor) to serve as a positive control. Complete the assay as normal. Amplex-red buffer: […] PH7.5, 1 mM EDTA, 1 mM MgCl2.\n1. Combine a-KG and L-alanine at desired concentrations and incubate for at least 10 minutes at 37C. Stocks of L-alanine and a-KG are diluted in distilled water. However, the stocks were diluted in GPT2 buffer for the assay.\n2. Prepare GPT2 dilution at the desired concentration in GPT2 buffer.\n3. Plate 40uL of GPT2 dilution with 40uL of substrate dilution and let incubate for 30 minutes at room temperature.\n4. Add 20uL of Amplex reaction mix prepared as follows: 1.5uL 200U/mL Horseradish Peroxidase, 200mM Thiamine Pyrophosphate, 200U/mL Pyruvate Oxidase; 7.5uL 10mM Amplex Red; 288uL Amplex Buffer.\n5. Incubate for 30 minutes at room temperature in the dark, then image using AM_Amplex_Fluorescence on plate reader nearest the window.", "values": [{"smiles": "CC[C@@H](CO)NC(=O)[C@@H]1C=C2c3cccc4[nH]cc(c34)C[C@H]2N(C)C1", "Potency": "inconclusive [inhibitor, single point]"}, {"smiles": "CCC1CC2CN3CCc4c([nH]c5ccccc45)C(C(=O)OC)(C2)C13", "note": "(stereo not drawn)", "Potency": "inactive"}, {"smiles": "CCOc1ccc(C(=O)N2CCC3(CC2)NCc2ccccc2-n2ccnc23)cc1", "Potency": "inconclusive [inhibitor, single point]"}, {"smiles": "C=C(C)C(=O)O[C@H]1[C@@H]2[C@H](C)C(=O)O[C@@H]2C[C@@H](C)[C@@H]2C=CC(=O)[C@]21C", "Potency": "inactive"}, {"smiles": "COc1ccc(-c2cc([C@H]3CN4CC[C@H]3C[C@@H]4CNC(=O)C(C)(C)C)nc(C)n2)cc1OC", "Potency": "inactive"}, {"smiles": "O=C(O)c1nn(Cc2ccc(Cl)cc2Cl)c2ccccc12", "Potency": "inconclusive [inhibitor, single point]"}, {"smiles": "C[C@H](N)C(=O)c1ccccc1", "Potency": "inconclusive [inhibitor, single point]"}, {"smiles": "CCOC(=O)Nc1ccc(NCc2ccc(F)cc2)cc1N", "Potency": "inconclusive [inhibitor, single point]"}, {"smiles": "COc1cc2c(cc1OCc1ccccc1)N(C(=O)c1c[nH]c3ccccc13)CC21CCN(C)CC1", "Potency": "inconclusive [inhibitor, single point]"}, {"smiles": "O=C1N[C@@H](Cc2ccccc2)CN2CCCC[C@@H]12", "Potency": "inconclusive [inhibitor, full curve, poor fit]"}, {"smiles": "COc1ccc(C(=O)NC[C@H]2C[C@@H]3CCN2C[C@@H]3c2cc(-c3ccc4ccccc4c3)nn2C)cc1", "Potency": "inactive"}, {"smiles": "CC(C)(O)/C=C/C(=O)[C@](C)(O)[C@H]1[C@H](O)C[C@@]2(C)[C@@H]3CC=C4[C@@H](C[C@H](O)C(=O)C4(C)C)[C@]3(C)C(=O)C[C@]12C", "Potency": "inactive"}, {"smiles": "C#CCN(C)C[C@H]1CN2CC[C@H]1C[C@@H]2CNC(=O)Nc1ccc(OC)cc1", "Potency": "inactive"}, {"smiles": "O=C(NCc1ccccc1)[C@H]1CN2CCC1C[C@@H]2Cn1cc(CSc2ccccc2)nn1", "note": "(stereo partly drawn)", "Potency": "inactive"}, {"smiles": "CC1=CC(=O)[C@@H](O)[C@@]2(C)C1C[C@H]1OC(=O)[C@H](O)[C@@]3(O)[C@@H](C)[C@@H](O)[C@H](O)C2[C@@]13C", "note": "(stereo partly drawn)", "Potency": "inactive"}, {"smiles": "CNc1ccc2oc(C[C@H]3O[C@@]4(CC[C@H]3C)O[C@H](C(C)C(=O)c3ccc[nH]3)[C@H](C)C[C@H]4C)nc2c1C(=O)O", "note": "(stereo partly drawn)", "Potency": "inconclusive [inhibitor, single point]"}, {"smiles": "CCC(=O)C(CC(C)N(C)C)(c1ccccc1)c1ccccc1", "note": "(stereo not drawn)", "Potency": "inactive"}, {"smiles": "Cc1ccccc1-c1ccc2n(c1=O)C[C@H]1C[C@@H]2CN(C(=O)c2cnccn2)C1", "Potency": "inactive"}, {"smiles": "CN(C)C(=O)[C@H]1CN2CCC1C[C@@H]2Cn1cc(C2(O)CCCCC2)nn1", "note": "(stereo partly drawn)", "Potency": "inactive"}, {"smiles": "Nc1ccc(Cl)cc1N", "Potency": "inconclusive [inhibitor, full curve, poor fit]"}, {"smiles": "O=S(=O)(NC[C@H]1C[C@@H]2CCN1C[C@@H]2CN1CCN(c2ccccn2)CC1)c1cccs1", "Potency": "inconclusive [inhibitor, full curve, poor fit]"}, {"smiles": "CCOC(=O)[C@H]1CN(C(=O)c2cc(C)oc2C)[C@]2(C)C(=O)N(CCOC)c3ccccc3[C@H]12", "Potency": "inconclusive [inhibitor, full curve, poor fit]"}, {"smiles": "O=C(O)c1cn(C2CCCCCC2)nn1", "Potency": "inactive"}, {"smiles": "COc1ccccc1NC(=O)Nc1ccc2n(c1=O)C[C@H]1C[C@@H]2CN(C2CCOCC2)C1", "Potency": "inconclusive [inhibitor, partial curve]"}, {"smiles": "CC(=O)C1CCC2C3CCC4C[C@@H](O)CCC4(C)C3CCC12C", "note": "(stereo partly drawn)", "Potency": "inactive"}, {"smiles": "COc1cc2c(cc1Oc1ccccc1)NC(=O)C21CCN(c2ncc(F)cn2)CC1", "Potency": "inactive"}, {"smiles": "CC(C)(C)CC(=O)N1C[C@@H]2C[C@H](C1)c1ccc(NC(=O)Nc3cccc(F)c3)c(=O)n1C2", "Potency": "inconclusive [inhibitor, single point]"}, {"smiles": "COc1ccc(NC(=O)N2[C@H]3CC[C@@H]2c2cnc(-c4ccc(F)cc4)nc2C3)c(OC)c1", "Potency": "inconclusive [inhibitor, single point]"}, {"smiles": "CCN1CCN(C(=O)Cc2ccc(Nc3ncc(F)c(Nc4ccc(C(=O)Nc5ccccc5Cl)cc4)n3)cc2)CC1", "Potency": "inactive"}, {"smiles": "O=S(=O)(c1ccccc1F)N1CCOc2c(N3CCNCC3)cccc21", "Potency": "inconclusive [inhibitor, single point]"}, {"smiles": "CNc1ccc(OC2CCNCC2)nc1", "Potency": "inconclusive [inhibitor, single point]"}, {"smiles": "COCCNC(=O)[C@H]1CN2CC[C@H]1C[C@@H]2Cn1cc(-c2ccc(C(C)(C)C)cc2)nn1", "Potency": "inconclusive [inhibitor, full curve, poor fit]"}, {"smiles": "CN1C(=O)[C@@H](Cc2c[nH]c3ccccc23)N=C(c2ccccc2F)c2ccccc21", "Potency": "inactive"}, {"smiles": "CNC(=O)Oc1cccc2ccccc12", "Potency": "active: 8.91 µM"}, {"smiles": "CCOC(=O)c1cncn1C(C)c1ccccc1", "note": "(stereo not drawn)", "Potency": "inconclusive [inhibitor, full curve, poor fit]"}, {"smiles": "Cn1cccc1CN1CCC2(CC1)C(=O)Nc1ccccc12", "Potency": "inconclusive [inhibitor, partial curve, poor fit]"}, {"smiles": "O=C(c1ccccc1)N1C[C@@H]2C[C@H](C1)c1c(-c3cccnc3)ccc(=O)n1C2", "Potency": "inconclusive [inhibitor, full curve, poor fit]"}, {"smiles": "COc1cc2c(cc1CCc1ccccc1)N(C(=O)[C@@H]1CCCO1)CC21CCN(C(C)=O)CC1", "Potency": "inactive"}, {"smiles": "Cc1nc(-c2cccs2)cc([C@H]2CN3CC[C@H]2C[C@@H]3CNC(=O)c2ccco2)n1", "Potency": "inconclusive [inhibitor, single point]"}, {"smiles": "CC(C)c1cccc(C(C)C)c1O", "Potency": "inconclusive [inhibitor, single point]"}, {"smiles": "CC[C@H]1CN2CC[C@H]1C[C@@H]2CNCc1ccc2c(c1)OCO2", "Potency": "inactive"}, {"smiles": "CN1CCN(C(=O)Cc2cccn2-c2ccc(Cl)cc2)CC1", "Potency": "inactive"}, {"smiles": "COC[C@H]1OC(=O)c2coc3c2[C@@]1(C)C1=C(C3=O)[C@@H]2CC[C@H](O)[C@@]2(C)C[C@@H]1OC(C)=O", "Potency": "inconclusive [inhibitor, single point]"}]}]}
